# Measurements from publication PMC6919601, “Identification of Plasmodium dipeptidyl aminopeptidase allosteric inhibitors by high throughput screening” (PLoS ONE, 2019).
# In all, about 110,000 compounds went through this assay and about 230 (0.21%) showed an effect of 50% or more. Some of the results follow. Where a SMILES comes first, the peptide text is derived from it.
# Target: DPAP1 (Plasmodium falciparum, UniProt Q8IIJ9)
# Experiment: primary screen, percent inhibition; read by cleavage of a fluorogenic dipeptide substrate; higher = more effect of the substance
# Design: species or system P. falciparum D10 trophozoite lysates; single well
# 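Note: 30 min substrate incubation versus DMSO and 10 µM JCP410 controls.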
# Chain of DPAP1 (Q8IIJ9 whole entry, looked up): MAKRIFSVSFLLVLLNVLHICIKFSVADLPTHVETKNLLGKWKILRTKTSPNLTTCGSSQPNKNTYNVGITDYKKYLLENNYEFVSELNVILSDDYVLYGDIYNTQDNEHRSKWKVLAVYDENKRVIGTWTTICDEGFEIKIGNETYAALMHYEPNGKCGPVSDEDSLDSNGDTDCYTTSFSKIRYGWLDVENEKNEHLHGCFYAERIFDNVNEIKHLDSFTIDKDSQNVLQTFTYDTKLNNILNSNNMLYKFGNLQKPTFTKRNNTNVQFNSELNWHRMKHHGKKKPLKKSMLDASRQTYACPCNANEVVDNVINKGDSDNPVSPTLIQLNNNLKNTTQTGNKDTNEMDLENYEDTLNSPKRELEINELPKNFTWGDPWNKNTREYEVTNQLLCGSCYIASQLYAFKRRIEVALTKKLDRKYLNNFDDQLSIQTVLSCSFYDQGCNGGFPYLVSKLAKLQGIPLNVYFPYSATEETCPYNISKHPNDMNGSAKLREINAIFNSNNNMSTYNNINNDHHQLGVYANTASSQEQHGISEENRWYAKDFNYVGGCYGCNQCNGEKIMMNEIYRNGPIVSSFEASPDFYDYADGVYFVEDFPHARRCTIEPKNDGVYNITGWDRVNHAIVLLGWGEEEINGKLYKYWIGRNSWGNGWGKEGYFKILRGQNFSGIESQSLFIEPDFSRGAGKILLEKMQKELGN
row,Structure (SMILES),% Inhibition @ 10 uM [%]
1,O=C(Cn1ncn2c(cc3ccccc32)c1=O)NCc1ccccc1Cl,-1.7
2,COc1ccc(C2=NN(S(C)(=O)=O)C(c3cc(OC)ccc3OC)C2)cc1 (stereo not drawn),1.52
3,CC(C)CC(NC(=O)c1ccc2c(c1)OCO2)C(=O)NCC#N (stereo not drawn),-0.778
4,CN(C)c1nc(Cl)nc(NCCOc2ccccc2)n1,-7.81
5,CSc1ccc(/C=C2/NC(=S)NC2=O)cc1,1.88
6,CCOc1cc(/C=C2\SC(=O)N(C)C2=O)ccc1OCc1ccc(C(=O)O)cc1,-2.14
7,O=C1C2CCCN2C(c2c(F)cccc2Cl)N1c1nccs1 (stereo not drawn),-0.499
8,Cc1ccccc1Cn1c(SCc2ccc(C(=O)NCCN3CCCC3)cc2)nc2ccncc21,-1.6
9,COc1cc(S(=O)(=O)N2CCC(C(N)=O)CC2)c(C)cc1C,1.93
10,COc1ccc(C(=O)Nc2cc(Cl)cc(Cl)c2)cc1OC,0.823
11,CCN(CC)C(=O)CN(c1ccc(OC)c(Cl)c1)S(=O)(=O)c1ccc(C)cc1,-5.88
12,Cc1ccc(C(=O)CCC(=O)Nc2nnc(C)s2)cc1,1.88
13,OC(CC(O)c1ccccc1)CN1CCOCC1 (stereo not drawn),0.472
14,C/C=C1/C(C)C(C(F)(F)F)(C(F)(F)F)C(C#N)=C(N)N1c1ccc(C(N)=O)cc1 (stereo not drawn),-4.75
15,O=C(NCc1ccco1)c1cc(-c2ccccc2F)no1,-7.67
16,OCCn1c(CO)nc2ccccc21,3.32
17,Cc1cc(C)n2nc(SCc3cc(=O)n4ccccc4n3)nc2n1,-0.406
18,CCCCCCNC(=O)CC(NS(=O)(=O)c1ccc(OC)cc1)C(C)C (stereo not drawn),1.27
19,CCN(CC)CCNC(=O)c1nnc(Cc2ccc(F)cc2)o1,1.51
20,CCCc1nc2sc3c(Cl)ncnc3c2c2c1COC(C)(C)C2,-3.24
21,COCCNC(=O)c1ccc2c(c1)sc1nc(-c3ccc(C)cc3)cn12,-1.48
22,CC(C)(C)c1ccc(-c2cc(N)[nH]n2)cc1,-2.88
23,CC[C@H](NC(=O)[C@H](Cc1ccccc1)NC(C)=O)C(=O)c1nc2ccccc2o1,-5.21
24,O=C(O)c1cccc(NC(=O)c2c(C(=O)O)cccc2[N+](=O)[O-])c1,0.266
25,COc1ccc(-c2csc(/C(C#N)=C/c3ccc(Cl)cc3Cl)n2)cc1,1.41

row,Structure (SMILES),% Inhibition @ 10 uM [%]
1,O=C1c2ccccc2Cc2ccccc21,4.11
2,CCCNC(=O)C1CCCN(S(=O)(=O)N2CCC3(CC2)OCCO3)C1 (stereo not drawn),2
3,O=C(O)CCCC(=O)NCc1ccc(C(=O)O)cc1,-2.9
4,O=[N+]([O-])c1ccccc1S(=O)(=O)Nc1ccccc1Cl,-4.85
5,Cc1cccc(-c2nc(CSc3nncn4c3cc3occc34)c(C)o2)c1,6.94
6,Cc1cc(NC(=O)c2cccn(OCc3ccccc3)c2=O)no1,-3.44
7,CCOC(=O)N1CCC(NC(=O)c2ccc3nc(/C=C(\O)c4ccc(OC)cc4)c(O)nc3c2)CC1,-1.59
8,COc1ccccc1/C=C1\N=C(c2ccc(C(C)(C)C)cc2)OC1=O,6.11
9,Cc1cc(=O)oc2c1c(C)nn2-c1ccc(Cl)cc1,-1.85
10,O=c1c(-c2ccc3c(c2)OCCO3)coc2cc(O)cc(O)c12,-5.28
11,CCOC(=O)c1ccc(OC)c(S(=O)(=O)N2CCOCC2)c1,-0.357
12,Cc1sc2nc(NC(=O)c3ccccc3)sc(=O)c2c1C,3
13,COc1ccc(/C=C2\N=C(c3ccc(Cl)cc3Cl)OC2=O)c(OC)c1OC,0.434
14,CCOc1cc(/C=C2/NC(=O)N(CC)C2=O)ccc1OC,-15.4
15,COc1cccc(CSc2nc3ccncc3[nH]2)c1,4.83
16,CCc1nn(CC(=O)NCc2ccccc2)c(=O)c2cc3sccc3n12,-7.1
17,Cc1nn(Cc2ccc(F)cc2)c(C)c1NC(=O)CC12CC3CC(CC(C3)C1)C2,0.931
18,CCCCO/C(O)=C1\C(C)=NC2=C(C(=O)CCC2)C1c1cccc(O)c1 (stereo not drawn),4.1
19,O=C1OC(c2ccc(Cl)c(Cl)c2)=N/C1=C\c1ccccc1F,-6.38
20,CCCCN(Cc1ccco1)C(=O)Cn1ncc2c1-c1ccccc1OC2,-0.692
21,CCc1c2c(nc3sc(C(=O)Nc4nsc(-c5ccccc5)n4)c(N)c13)CC(C)(C)CC2=O,41.9
22,CCc1ccccc1N(CC(=O)NCc1ccco1)S(=O)(=O)c1ccc(C)cc1,-1.99
23,Cc1cc(C)nc(SCC(=O)Nc2cccc(C(F)(F)F)c2)n1,-3.37
24,CCOCCCNC(=O)C1CCCN(C(=O)c2cnn(-c3ccccc3)c2-n2cccc2)C1 (stereo not drawn),-2
25,O=C(NCc1cccnc1)Nc1ccc(Cl)cc1,-0.67

row,Structure (SMILES),% Inhibition @ 10 uM [%]
1,Cc1n[nH]c(C)c1S(=O)(=O)N1CCCC(C(=O)NC2CCCCC2)C1 (stereo not drawn),2.39
2,Cc1nc2ccccc2n1CCOc1ccc(Br)cc1,-9.1
3,CCOC(=O)c1sc(NC(=O)COc2ccccc2Br)nc1C,0.611
4,O=C1/C(=C/C=C/c2ccccc2[N+](=O)[O-])Sc2ccccc21,-0.294
5,Cc1ccc(-n2nc3c(=O)n(CCCC(=O)NCCc4ccccc4C)nc(C)c3c2C)cc1,-3.43
6,COc1ccc(S(=O)(=O)N2CCN(c3ccc(Cl)c(Cl)c3)CC2)cc1,3.53
7,COc1cc(OC)cc(C(=O)Nc2ccccc2C(=O)NCc2ccco2)c1,-2.34
8,O=C(Nc1ccccc1Br)c1cccc([N+](=O)[O-])c1,-4.31
9,CCCCc1ccc(NC(=O)C(C)NS(=O)(=O)c2ccc(C)cc2)cc1 (stereo not drawn),-5.01
10,CC(C)(C)c1ccc(S(=O)(=O)NCc2ccc(C(=O)O)cc2)cc1,-1.38
11,CCCn1c(=O)c(C(=O)Nc2cc(Cl)ccc2OC)c(O)c2ccccc21,-7.5
12,COc1ccc(Cc2nn[nH]n2)cc1OC,5.61
13,O=C(NCCN1CCOCC1)c1cnn2c(C(F)(F)F)cc(-c3ccc(Br)cc3)nc12,-4.21
14,O=C(NCCc1csc2nc(-c3ccccc3)nn12)c1ccc2c(c1)OCO2,3.72
15,CC1CCCCN1C1CC(=O)N(c2ccc(Br)cc2)C1=O (stereo not drawn),-5.46
16,Cc1n[nH]c(C)c1Nc1cnn(C23CC4CC(CC(C4)C2)C3)c(=O)c1Cl,-1.66
17,Cc1ccn2cc(-c3cccc(NS(=O)(=O)c4ccccc4)c3)nc2c1,-4.15
18,CNC(=O)CNC(=O)CNC(=O)c1ccccc1 (HELM PEPTIDE1{[O=C(c1ccccc1)[*:2]].G.G.[CN[*:1]]}$$$$V2.0),-3.48
19,CC1CCN(S(=O)(=O)N2CCCC(C(=O)NCCN3CCCCC3)C2)CC1 (stereo not drawn),-1.81
20,COC(=O)c1conc1-c1ccc(Cl)cc1Cl,-2.71
21,O=C(Nc1ccc(NC(=O)c2cc(S(=O)(=O)N3CCCCC3)ccc2Cl)cc1)c1ccccc1,7.35
22,CN1C2CCC1(C(=O)c1ccccc1)C(C(=O)O)C(O)C2 (stereo not drawn),3.72
23,COc1ccc(Cn2c(=O)c3ccccc3n3c(-c4ccc(F)c(F)c4)nnc23)cc1,0.00665
24,COc1cc(N)c(-c2ccc3cc(OC)c(OC)cc3n2)cc1OC,-0.0555
25,CC(C)c1ccc(/C=C2/NC(=O)N(Cc3ccc(F)cc3)C2=O)cc1,-3.41

row,Structure (SMILES),% Inhibition @ 10 uM [%]
1,Oc1oc(-c2ccc(Br)cc2)nc1/C=N/c1cccnc1,6.11
2,Cc1ccc(-c2noc(CN(C(=O)COc3cc(C)ccc3C)C(C)C)n2)cc1,-3.37
3,Cc1ccc2c(c1)Cc1c(O)nc(-c3ccccc3O)nc1O2,6.98
4,COCCCNC(=O)c1cnn2c(C)c(Cc3ccc(C)cc3)c(C)nc12,-2.14
5,C=CCOC(=O)C1=C(C)N=C2CC(C)(C)CC(O)=C2C1c1cc2c(cc1Cl)OCO2 (stereo not drawn),4.54
6,Cc1nc(NC(=O)c2ccccc2O)sc1C(C)C,5.98
7,CCC(C)(C)C1CCc2c(sc(NC(C)=O)c2C#N)C1 (stereo not drawn),8.44
8,COCCN1C(=O)c2ccccc2C(C(=O)N2CCN(c3ccccn3)CC2)C1c1ccc(F)cc1 (stereo not drawn),-7.43
9,N#CC1=C(N)Oc2[nH]nc(-c3ccncc3)c2C12C(=O)Nc1ccccc12 (stereo not drawn),-1.06
10,OC(COCc1ccccc1)Cn1cnc2ccccc21 (stereo not drawn),5.04
11,O=C(O)c1ccc(NC(=O)c2ccc(Br)cc2)cc1,-1.98
12,COc1ccc(CN2CC(C(=O)NCc3ccccn3)CC2=O)cc1 (stereo not drawn),-3.58
13,Clc1ccc2c(Cl)c3c(nc2c1)CCCC3,0.231
14,O=[N+]([O-])c1cccc(-c2nnco2)c1,-1.82
15,O=C(O)c1ccc(N2C(=O)CC(N3CCN(c4ccc(Cl)cc4)CC3)C2=O)cc1 (stereo not drawn),-1.38
16,COC(=O)c1ccc(OCC2c3cc(OC)c(OC)cc3CCN2C(=O)c2ccco2)cc1 (stereo not drawn),-6.12
17,COc1ccccc1OC(C)C(=O)N(Cc1ccco1)C1CCS(=O)(=O)C1 (stereo not drawn),-2.85
18,Nc1nc(SCC(=O)N2CCCCC2)nc2sc3c(c12)CCCC3,11.9
19,N#Cc1ccc(Cn2c(=O)n(CCC(=O)NCCc3ccc(Cl)cc3)c(=O)c3sccc32)cc1,0.0221
20,Cc1cc(C)c2c(N)c(C(N)=O)sc2n1,-1.98
21,CCc1c(N(C)C)nc2n(c1=O)CCS2,-4.75
22,O=S(=O)(NCc1ccc2c(c1)OCO2)c1cc(Br)c(Br)s1,4.35
23,CCc1ccc(OCC(O)Cn2c(SC(C)C)nc3c2c(=O)[nH]c(=O)n3C)cc1 (stereo not drawn),-0.366
24,Cc1ccc(/C=C2\Sc3ccccc3C2=O)c(O)c1,22.9
